This is an account of results in PMC3744423.

Sequences of proteins named here, by UniProt entry; tags and fusion partners are left off. A change or cut given only in a name is not applied to a line headed by its entry.
UniProt P35222: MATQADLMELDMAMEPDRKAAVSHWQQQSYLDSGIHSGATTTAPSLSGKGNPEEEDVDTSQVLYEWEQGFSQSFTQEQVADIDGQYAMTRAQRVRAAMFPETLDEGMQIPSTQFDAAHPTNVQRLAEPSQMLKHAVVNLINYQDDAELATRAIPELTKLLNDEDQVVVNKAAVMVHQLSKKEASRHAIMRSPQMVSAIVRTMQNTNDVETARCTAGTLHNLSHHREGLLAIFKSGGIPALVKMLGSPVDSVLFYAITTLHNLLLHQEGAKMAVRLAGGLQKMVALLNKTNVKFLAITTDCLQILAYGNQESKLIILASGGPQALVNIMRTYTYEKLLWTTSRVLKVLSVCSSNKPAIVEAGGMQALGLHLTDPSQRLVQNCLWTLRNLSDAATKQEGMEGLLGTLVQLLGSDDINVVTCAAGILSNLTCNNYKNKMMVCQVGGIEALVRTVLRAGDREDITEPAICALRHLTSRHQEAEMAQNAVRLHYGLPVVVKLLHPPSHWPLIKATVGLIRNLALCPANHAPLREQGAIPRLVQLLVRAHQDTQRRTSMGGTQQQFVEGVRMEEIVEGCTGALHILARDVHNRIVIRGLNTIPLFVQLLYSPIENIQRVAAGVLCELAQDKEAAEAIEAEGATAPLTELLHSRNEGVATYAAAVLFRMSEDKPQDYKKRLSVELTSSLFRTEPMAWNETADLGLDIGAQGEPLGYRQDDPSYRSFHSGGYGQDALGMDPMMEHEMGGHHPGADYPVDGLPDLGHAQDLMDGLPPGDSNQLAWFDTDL
UniProt P36402: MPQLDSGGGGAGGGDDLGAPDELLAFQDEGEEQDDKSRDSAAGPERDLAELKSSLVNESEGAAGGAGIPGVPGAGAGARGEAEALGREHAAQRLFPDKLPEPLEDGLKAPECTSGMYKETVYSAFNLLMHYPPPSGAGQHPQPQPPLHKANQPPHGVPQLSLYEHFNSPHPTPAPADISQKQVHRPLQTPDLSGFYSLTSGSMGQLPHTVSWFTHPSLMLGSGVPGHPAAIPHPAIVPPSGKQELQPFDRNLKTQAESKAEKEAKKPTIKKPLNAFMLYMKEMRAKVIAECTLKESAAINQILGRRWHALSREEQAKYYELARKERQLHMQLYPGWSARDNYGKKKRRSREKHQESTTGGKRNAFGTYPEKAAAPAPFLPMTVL
UniProt Q9UJU2: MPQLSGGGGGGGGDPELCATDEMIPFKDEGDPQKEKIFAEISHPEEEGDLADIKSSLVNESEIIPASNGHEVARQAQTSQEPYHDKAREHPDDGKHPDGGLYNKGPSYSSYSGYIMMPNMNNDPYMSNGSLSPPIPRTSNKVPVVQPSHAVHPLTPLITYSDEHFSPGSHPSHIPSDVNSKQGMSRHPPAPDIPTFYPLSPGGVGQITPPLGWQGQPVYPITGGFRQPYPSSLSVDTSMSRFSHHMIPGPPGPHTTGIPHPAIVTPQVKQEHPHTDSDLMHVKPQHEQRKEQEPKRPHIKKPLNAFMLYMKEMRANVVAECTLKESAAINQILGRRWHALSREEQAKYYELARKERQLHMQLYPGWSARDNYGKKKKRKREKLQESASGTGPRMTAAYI
UniProt Q9NQB0: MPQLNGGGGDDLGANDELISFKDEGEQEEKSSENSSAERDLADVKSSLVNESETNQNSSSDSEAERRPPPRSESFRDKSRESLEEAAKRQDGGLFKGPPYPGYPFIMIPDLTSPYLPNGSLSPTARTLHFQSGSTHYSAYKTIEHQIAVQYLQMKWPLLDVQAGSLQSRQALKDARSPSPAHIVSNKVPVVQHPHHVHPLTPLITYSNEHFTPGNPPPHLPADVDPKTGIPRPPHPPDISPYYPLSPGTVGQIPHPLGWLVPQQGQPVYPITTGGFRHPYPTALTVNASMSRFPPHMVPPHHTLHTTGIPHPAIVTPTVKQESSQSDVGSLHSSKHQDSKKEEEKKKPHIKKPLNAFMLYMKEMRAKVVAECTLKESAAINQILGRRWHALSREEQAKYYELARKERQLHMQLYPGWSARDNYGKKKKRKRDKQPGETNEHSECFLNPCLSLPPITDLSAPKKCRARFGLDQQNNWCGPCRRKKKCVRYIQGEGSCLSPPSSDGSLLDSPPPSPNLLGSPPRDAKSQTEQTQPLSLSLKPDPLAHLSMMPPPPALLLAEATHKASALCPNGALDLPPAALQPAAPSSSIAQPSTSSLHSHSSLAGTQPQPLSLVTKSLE

For assay [1], the target named is T1, Flag-tagged CREB5 (human) (UniProt Q02930).
T1 sequence: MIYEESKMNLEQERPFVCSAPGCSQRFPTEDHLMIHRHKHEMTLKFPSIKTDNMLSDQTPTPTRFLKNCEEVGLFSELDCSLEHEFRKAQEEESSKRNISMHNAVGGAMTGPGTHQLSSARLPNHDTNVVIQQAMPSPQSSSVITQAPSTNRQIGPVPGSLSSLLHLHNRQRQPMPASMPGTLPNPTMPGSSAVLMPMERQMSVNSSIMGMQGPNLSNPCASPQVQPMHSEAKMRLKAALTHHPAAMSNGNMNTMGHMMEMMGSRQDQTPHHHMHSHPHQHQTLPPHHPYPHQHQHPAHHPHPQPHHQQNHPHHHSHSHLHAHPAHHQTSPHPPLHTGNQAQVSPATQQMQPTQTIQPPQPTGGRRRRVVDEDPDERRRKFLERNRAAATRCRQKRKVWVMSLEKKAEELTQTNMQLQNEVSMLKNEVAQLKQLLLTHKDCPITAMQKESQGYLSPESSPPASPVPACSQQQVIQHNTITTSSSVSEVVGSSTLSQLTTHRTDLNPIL
In words: co-IP; 293T cells co-transfected with Flag-tagged CREB5, HA-tagged TCF1 and HA-tagged TCF4; immunoprecipitation with anti-Flag antibody, immunoblot with anti-HA or anti-Flag. On the technique in general: A western blot detects proteins with antibodies after separation by electrophoresis.

Assay [2] deals with myc-tagged β-catenin (UniProt P35222). As to the kind of experiment: co-IP; 293T cells transfected with myc-tagged β-catenin and HA-tagged wild-type or mutant TCF1; immunoprecipitation with anti-myc antibody, immunoblot with anti-myc or anti-HA.
Assay [3] has as its target T1, Flag-tagged CREB5 (human). In words: co-IP; 293T cells, myc-tagged LEF1 and Flag-tagged CREB5; precipitating antibody not named in the legend.
The target in assay [4] is HA-tagged TCF1 mutant (D21A; E29K) (human) (UniProt P36402). As to the kind of experiment: co-IP; 293T cells co-transfected with HA-tagged TCF1 or TCF4 constructs and myc-tagged β-catenin; immunoprecipitation with anti-HA antibody, immunoblot with anti-myc or anti-HA; lysis buffer 50 mM Hepes pH 7.6, 150 mM NaCl, 5 mM EDTA, 1% Nonidet P-40.
Assay [5] concerns the target Endogenous LEF1 (K562 and Ramos cells) (human (endogenous in K562 and Ramos)) (UniProt Q9UJU2). As to the kind of experiment: co-IP; 2 mg of lysate from K562 or Ramos cells immunoprecipitated with 10 ug of anti-LEF1 or control antibody, immunoblot; endogenous proteins.
In assay [6] the target is Flag-tagged TCF1 (human) (UniProt P36402). As to the kind of experiment: co-IP; 293T cells with Flag-tagged TCF1, endogenous ATF2 detected; cells transduced with lentiviral shATF2 as negative control.

These are yes or no findings as the source states them, for the method shown. In cells and extracts the contact can be indirect. Some binding calls cover weakened binding; strength is not graded here. For some assays here: Sequences can lack the tags named with a protein.

As to “HA-tagged TCF1 (from UniProt P36402 1-384)”, in assay [1], the binding entry is given as “binds”.
As to “HA-tagged TCF1 mutant (D21A; E29K) (from UniProt P36402 1-384)”, the binding result in assay [2] was “no binding”.
Consider “HA-tagged TCF4 (from UniProt Q9NQB0 1-619)”, for which, in assay [1], the binding result is listed as “binds”.
For the molecule “myc-tagged LEF1 (from UniProt Q9UJU2 1-399)”, in assay [3], the binding entry is on record as “binds”.
On to “myc-tagged β-catenin (from UniProt P35222 1-781)”, for which, in assay [4], the binding result is “no binding”.

B1: Endogenous ATF7 (K562 and Ramos cells) (protein, UniProt P17544 1-483)
chain: MGDDRPFVCNAPGCGQRFTNEDHLAVHKHKHEMTLKFGPARTDSVIIADQTPTPTRFLKNCEEVGLFNELASSFEHEFKKAADEDEKKAAAGPLDMSLPSTPDIKIKEEEPVEVDSSPPDSPASSPCSPPLKEKEVTPKPVLISTPTPTIVRPGSLPLHLGYDPLHPTLPSPTSVITQAPPSNRQMGSPTGSLPLVMHLANGQTMPVLPGPPVQMPSVISLARPVSMVPNIPGIPGPPVNSSGSISPSGHPIPSEAKMRLKATLTHQVSSINGGCGMVVGTASTMVTARPEQSQILIQHPDAPSPAQPQVSPAQPTPSTGGRRRRTVDEDPDERRQRFLERNRAAASRCRQKRKLWVSSLEKKAEELTSQNIQLSNEVTLLRNEVAQLKQLLLAHKDCPVTALQKKTQGYLESPKESSEPTGSPAPVIQHSSATAPSNGLSVRSAAEAVATSVLTQMASQRTELSMPIQSHVIMTPQSQSAGR
Take B1: in assay [5], the binding result was “binds”.

B2: Endogenous ATF2 (293T cells) (protein, UniProt P15336 1-505)
chain: MKFKLHVNSARQYKDLWNMSDDKPFLCTAPGCGQRFTNEDHLAVHKHKHEMTLKFGPARNDSVIVADQTPTPTRFLKNCEEVGLFNELASPFENEFKKASEDDIKKMPLDLSPLATPIIRSKIEEPSVVETTHQDSPLPHPESTTSDEKEVPLAQTAQPTSAIVRPASLQVPNVLLTSSDSSVIIQQAVPSPTSSTVITQAPSSNRPIVPVPGPFPLLLHLPNGQTMPVAIPASITSSNVHVPAAVPLVRPVTMVPSVPGIPGPSSPQPVQSEAKMRLKAALTQQHPPVTNGDTVKGHGSGLVRTQSEESRPQSLQQPATSTTETPASPAHTTPQTQSTSGRRRRAANEDPDEKRRKFLERNRAAASRCRQKRKVWVQSLEKKAEDLSSLNGQLQSEVTLLRNEVAQLKQLLLAHKDCPVTAMQKKSGYHTADKDDSSEDISVPSSPHTEAIQHSSVSTSNGVSSTSKAEAVATSVLTQMADQSTEPALSQIVMAPSSQSQPSGS
As for B2, in assay [6], the binding entry is “binds”.

B3: Endogenous ATF2 (K562 and Ramos cells) (protein, UniProt P15336 1-505)
chain: MKFKLHVNSARQYKDLWNMSDDKPFLCTAPGCGQRFTNEDHLAVHKHKHEMTLKFGPARNDSVIVADQTPTPTRFLKNCEEVGLFNELASPFENEFKKASEDDIKKMPLDLSPLATPIIRSKIEEPSVVETTHQDSPLPHPESTTSDEKEVPLAQTAQPTSAIVRPASLQVPNVLLTSSDSSVIIQQAVPSPTSSTVITQAPSSNRPIVPVPGPFPLLLHLPNGQTMPVAIPASITSSNVHVPAAVPLVRPVTMVPSVPGIPGPSSPQPVQSEAKMRLKAALTQQHPPVTNGDTVKGHGSGLVRTQSEESRPQSLQQPATSTTETPASPAHTTPQTQSTSGRRRRAANEDPDEKRRKFLERNRAAASRCRQKRKVWVQSLEKKAEDLSSLNGQLQSEVTLLRNEVAQLKQLLLAHKDCPVTAMQKKSGYHTADKDDSSEDISVPSSPHTEAIQHSSVSTSNGVSSTSKAEAVATSVLTQMADQSTEPALSQIVMAPSSQSQPSGS
Regarding B3, the binding result in assay [5] was “binds”.
